The list shows a part of the results. The full chains were built here from the parent and the listed change. Values near 0.05 are background.
B1: TEV protease; numbered along this chain (parent)
chain: MGESLFKGPRDYNPISSSICHLTNESDGHTTSLYGIGFGPFIITNKHLFRRNNGTLVVQSLHGVFKVKDTTTLQQHLVDGRDMIIIRMPKDFPPFPQKLKFREPQREERICLVTTNFQTKSMSSMVSDTSCTFPSGDGIFWKHWIQTKDGQCGSPLVSTRDGFIVGIHSASNFTNTNNYFTSVPKNFMELLTNQEAQQWVSGWRLNADSVLWGGHKVFMVKPEEPFQPVKEATQL

Variants of: B1
Assay: raw area under fraction-flipped curve 0-4 h after induction (AUC4h, not background-subtracted), DNA-recorder readout of cleavage of the substrate (dimensionless); higher = more cleavage of the substrate by the protease variant
Settings: temperature: 34 °C; time window: 0-4 h after rhamnose induction
Experimental: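 In vivo DNA recorder in E. coli TOP10(DE3) ΔrhaA at 34 °C. Each TEVp single-site mutant (parent TEVp 0) is paired with a single-site variant of the 7-mer TEVs (canonical ENLYFQ|S). The substrate sits between flexible linkers in a Bxb1-sfGFP-TEVs-SsrA fusion, so cleavage stabilises Bxb1 and speeds flipping of a recombination array, read by NGS. The value is the raw area under the fraction-flipped curve over 0-4 h after rhamnose induction (AUC4h), with ≥20 reads per time point. It is not background-subtracted; inactive controls average about 0.047.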
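Note: Bxb1 expression induced with 0.2% (w/v) L-rhamnose at OD600 near 0.5, cultures sampled hourly, flipped fraction per protease–substrate barcode pair counted by paired-end Illumina sequencing.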

Variant | area with substrate ENLYCQS | area with substrate ENLYEQS | area with substrate ENLYGQS | area with substrate ENLYHQS | area with substrate ENLYKQS | area with substrate ENLYLQS | area with substrate ENLYMQS | area with substrate ENLYNQS | area with substrate ENLYQQS | area with substrate ENLYTQS | area with substrate ENLYWQS | area with substrate ENLYDQS | area with substrate ENLYIQS | area with substrate ENLYYQS | area with substrate ENLYPQS | area with substrate ENLYSQS | area with substrate ENLYRQS | area with substrate ENLYVQS
T114I | 0.0803 | 0.0589 | 0.0699 | 0.0575 | 0.0715 | 0.078 | 0.0909 | 0.0561 | 0.0636 | 0.0819 | 0.0777 |  |  |  |  |  |  | 
L99F | 0.0639 |  | 0.068 |  | 0.0766 |  | 0.057 |  |  | 0.0709 | 0.0557 | 0.063 | 0.0977 | 0.0622 |  |  |  | 
H143F | 0.105 | 0.0678 | 0.0674 | 0.104 |  |  | 0.0643 | 0.0783 | 0.0697 |  |  | 0.0718 |  | 0.0675 | 0.0732 | 0.0833 |  | 
I110L | 0.0952 | 0.0696 | 0.0646 | 0.0609 |  |  | 0.0928 | 0.0515 | 0.0651 | 0.0798 | 0.0852 | 0.0592 |  | 0.0502 | 0.0793 |  |  | 
P93V | 0.0956 | 0.0754 |  | 0.0753 |  |  | 0.0881 |  |  | 0.0711 | 0.0705 | 0.0955 | 0.116 | 0.0796 | 0.0672 |  | 0.0596 | 0.135
S154T | 0.115 | 0.0618 |  | 0.0723 |  |  | 0.0843 | 0.0627 | 0.0596 | 0.0744 | 0.0655 | 0.0656 |  |  | 0.0494 | 0.0712 |  | 
S154K | 0.11 | 0.0653 | 0.0679 | 0.0661 | 0.0428 | 0.0776 | 0.0718 | 0.0641 | 0.0654 |  | 0.0601 | 0.0922 |  |  |  |  |  | 0.101
D161M | 0.0618 | 0.0698 |  | 0.0539 | 0.056 | 0.0547 |  |  |  |  |  | 0.0486 |  | 0.0232 | 0.044 | 0.038 | 0.061 | 0.0716
D137I | 0.0886 | 0.085 |  | 0.0468 | 0.112 | 0.111 | 0.0836 |  | 0.0694 | 0.0821 | 0.0879 | 0.0607 | 0.0912 |  | 0.0685 |  |  | 0.0971
S158P | 0.0517 | 0.048 | 0.0588 | 0.0478 | 0.0459 |  | 0.044 | 0.0543 |  | 0.0544 |  | 0.0597 | 0.0569 | 0.0457 | 0.0567 |  | 0.0536 | 0.0555
E107R | 0.116 | 0.0708 | 0.0616 |  | 0.0701 |  | 0.0902 | 0.0719 | 0.0422 |  |  | 0.0582 | 0.0256 | 0.0583 | 0.07 | 0.0731 | 0.0516 | 
R102P | 0.0534 |  | 0.0478 | 0.0609 | 0.0433 |  |  |  | 0.0309 |  |  | 0.0443 |  | 0.0811 | 0.0465 | 0.0386 | 0.047 | 0.0397
T119Y | 0.0989 | 0.0682 |  | 0.0712 | 0.0728 |  | 0.0786 | 0.0699 | 0.0628 | 0.0645 |  | 0.0528 | 0.122 |  | 0.0672 |  | 0.0468 | 
Q151D | 0.0804 | 0.0727 | 0.064 | 0.0719 | 0.0463 | 0.094 | 0.0936 | 0.0867 | 0.0737 | 0.0914 | 0.0857 | 0.0581 | 0.125 | 0.0767 | 0.0823 | 0.0768 |  | 0.138
F101C | 0.0757 | 0.0601 | 0.0575 | 0.0586 | 0.0548 |  | 0.0596 | 0.0555 | 0.0601 | 0.0323 | 0.0552 | 0.0607 |  | 0.0503 |  | 0.0735 | 0.0596 | 0.0745
F101R | 0.0487 | 0.0512 | 0.0459 |  | 0.0423 |  | 0.0532 | 0.0531 |  |  | 0.0408 |  | 0.0539 |  | 0.0531 | 0.0513 | 0.0561 | 0.03
S123Y | 0.121 | 0.0843 |  | 0.0599 |  |  |  |  | 0.0637 |  |  | 0.0521 | 0.0881 |  |  | 0.0657 |  | 0.13
M122R | 0.0958 | 0.0725 | 0.067 | 0.089 |  | 0.0915 |  |  | 0.093 |  | 0.0688 | 0.0768 | 0.114 | 0.0688 |  | 0.0906 |  | 0.127
S135C | 0.0998 | 0.0647 | 0.0673 | 0.0388 | 0.0616 |  | 0.0548 | 0.057 | 0.0682 | 0.0618 | 0.0703 | 0.0584 | 0.0679 | 0.0257 | 0.0601 | 0.058 |  | 0.0914
F140N | 0.0704 | 0.0634 | 0.0654 |  | 0.0699 | 0.0698 | 0.0593 | 0.0633 | 0.0558 | 0.0649 |  | 0.0658 | 0.0715 | 0.0568 | 0.0632 | 0.058 | 0.0557 | 0.066
F140Q | 0.0657 | 0.06 | 0.0598 |  | 0.0696 |  | 0.0436 | 0.061 | 0.0681 |  |  | 0.0635 |  | 0.0583 | 0.0727 |  |  | 
P89Q | 0.0797 | 0.0681 | 0.0627 | 0.0692 | 0.0664 | 0.0909 | 0.0655 |  | 0.0677 | 0.0763 |  | 0.0508 | 0.041 | 0.0626 | 0.0619 | 0.0583 | 0.0627 | 0.121
Q118D | 0.0764 | 0.0769 |  | 0.0701 | 0.054 | 0.0806 | 0.069 | 0.0759 | 0.0909 |  |  | 0.0702 |  |  | 0.0496 |  |  | 
Q118I | 0.0741 |  | 0.0647 | 0.0912 |  | 0.0747 | 0.0788 | 0.0844 | 0.0651 |  | 0.0635 |  |  |  | 0.0708 | 0.1 | 0.06 | 
Q118K | 0.078 | 0.0607 | 0.0669 | 0.0692 | 0.0475 |  | 0.0828 | 0.0754 |  | 0.0911 | 0.0652 | 0.0693 | 0.058 | 0.0697 | 0.0678 |  | 0.0552 | 0.0583
F117S | 0.0913 |  |  | 0.0684 | 0.0389 |  |  | 0.0599 |  |  | 0.0783 | 0.0521 | 0.127 | 0.0697 | 0.0744 | 0.08 | 0.0601 | 0.142
F117A | 0.0822 | 0.0758 |  |  |  |  |  | 0.0701 | 0.059 |  | 0.0819 | 0.0593 | 0.113 | 0.0454 |  |  |  | 0.114
F117Q | 0.122 | 0.0729 | 0.0694 | 0.0291 |  |  | 0.0571 |  |  | 0.0805 | 0.073 | 0.0547 | 0.117 |  | 0.0655 | 0.0825 |  | 0.124

Source: the supplement of paper PMC12217912
